# In PubChem BioAssay AID2546 (National Center for Advancing Translational Sciences (NCATS), 2010):
# Hit rate of the full screen: of about 310,000 compounds, about 11,000 (3.5%) were called active. The shares of active, inactive and inconclusive entries below differ from those in the screen. The call rests on the fitted dose curve; in most records, active means well fitted inhibition curve with a large enough effect; inconclusive means small, poorly fitted or top-dose-only effect, or effect the other way; inactive means flat fitted curve, though single readings scatter. No potency is given beside an inconclusive call; the fits are too rough.
# Test: VP16 counterscreen qHTS for inhibitors of ROR gamma transcriptional activity;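 further: Gal4-VP16 expression switched on by copper sulfate through the metallothionein promoter; nearly all actives have a fitted effect of over 50% in size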
# Details: Drosophila S2 Gal4-VP16 UAS-luciferase, luminescence, 20 h; activity, negative = inhibition: at 53.6 µM (top of the series)
# On the % scale 0 is the no-effect control and ±100 the full control effect; potency means the concentration at half of the fitted maximal effect; tags describe the fitted curve by direction and shape.
SMILES,Potency,"activity, negative = inhibition"
O=C(c1ccc(Br)o1)N(Cc1ccccc1)Cc1ccccc1,"inconclusive [inhibitor, single point]",
Cc1ccc(S(=O)(=O)N(C)C)cc1NC(=O)c1cncc(Br)c1,active: 2.51 µM,
O=C(c1cccc(F)c1)N1CCC[C@@]2(CCN(Cc3nccs3)C2)C1,,inactive: 12.7%
CCCCn1c(-c2csc3ccccc23)n[nH]c1=S,"inconclusive [inhibitor, full curve]",
CN(C)CCCN(C(=O)C1COc2ccccc2O1)c1nc2ccc(F)cc2s1 (stereo not given),,inactive: 0.308%
NC(=NC1CCCCC1)c1ccc([N+](=O)[O-])cc1,,inactive: -0.198%
Cc1ccccc1N1C(=O)CC(N2CCC(C(N)=O)CC2)C1=O (stereo not given),"inconclusive [inhibitor, partial curve, poor fit]",
N/C(=N/O)c1nc(N2CCCCC2)nc(N2CCCCC2)n1,"inconclusive [inhibitor, single point]",
O=c1c2[nH]c3ccc(F)cc3c2ncn1CCN1CCN(Cc2ccccc2)CC1,,inactive: 1.89%
CCOc1cc(NC(=S)NCc2ccccc2)c(OCC)cc1NC(=O)C(C)C,"inconclusive [inhibitor, single point]",
O=C(Nc1cccc(NC(=O)c2cccs2)c1)c1ccc([N+](=O)[O-])o1,"inconclusive [inhibitor, full curve]",
COc1ccc2nc(NC(=O)C3=NN(c4ccccc4)C(=O)CC3)sc2c1,"inconclusive [inhibitor, single point]",
COc1ccc(N=Nc2c(-c3ccc(OC)cc3)[nH]oc2=O)cc1,"inconclusive [inhibitor, single point]",
CCC(=O)Nc1nnc(-c2ccco2)o1,,inactive: -13.9%
COc1ccccc1NC(=S)NCCSc1ccc(Cl)cc1,"inconclusive [inhibitor, single point]",
O=C(N/N=C/c1ccc2nccnc2c1)c1ccncc1,,inactive: -3.04%
NS(=O)(=O)OCC(Cc1ccccc1)N1C(=O)c2ccccc2C1=O (stereo not given),,inactive: -4.65%
COc1ccccc1NS(=O)(=O)c1ccc2oc(SCc3ccc(C#N)cc3)nc2c1,"inconclusive [inhibitor, single point]",
O=C(O)CSc1cc(NS(=O)(=O)c2cccc([N+](=O)[O-])c2)c2ccccc2c1O,"inconclusive [inhibitor, single point]",
COc1ccc(-c2nc(NC(=O)C3CC(=O)N(c4ccc5c(c4)OCCO5)C3)sc2C)cc1 (stereo not given),"inconclusive [inhibitor, partial curve]",
